# Values of other authors as cited in PMC9322071, “Computer-Aided Design and Synthesis of (Functionalized quinazoline)–(α-substituted coumarin)–arylsulfonate Conjugates against Chikungunya Virus” (International Journal of Molecular Sciences, 2022).
# Settings: cited from earlier work
compound,measurement,value
"COC(=O)C[C@](O)(CCC(C)(C)O)C(=O)O[C@@H]1C(OC)=C[C@]23CCCN2CCc2cc4c(cc2[C@H]13)OCO4 [Harringtonine, harringtonine]",cytotoxicity,minimal cytotoxicity
